Substitutions are numbered along the chain they refer to. Names and notes keep the numbering of the source.
T1: intermediate-affinity hIL-2 receptor (IL-2Rβγ) on TF1+IL-2Rβ cells (human, UniProt P14784 27-551; P31785 23-369)
T1 sequence 1: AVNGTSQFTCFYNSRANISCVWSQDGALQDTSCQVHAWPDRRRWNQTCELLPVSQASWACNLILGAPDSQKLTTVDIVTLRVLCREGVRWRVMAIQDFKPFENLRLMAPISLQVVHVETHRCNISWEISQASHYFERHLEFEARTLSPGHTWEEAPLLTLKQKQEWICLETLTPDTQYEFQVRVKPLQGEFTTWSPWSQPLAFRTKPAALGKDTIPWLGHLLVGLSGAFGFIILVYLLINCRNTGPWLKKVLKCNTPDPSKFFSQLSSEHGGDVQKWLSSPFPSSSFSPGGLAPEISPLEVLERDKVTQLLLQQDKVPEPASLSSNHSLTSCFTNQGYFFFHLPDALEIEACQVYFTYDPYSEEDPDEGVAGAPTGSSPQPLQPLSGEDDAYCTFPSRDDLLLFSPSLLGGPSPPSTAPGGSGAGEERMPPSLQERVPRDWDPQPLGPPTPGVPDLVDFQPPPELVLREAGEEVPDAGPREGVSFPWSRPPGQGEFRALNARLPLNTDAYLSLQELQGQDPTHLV
T1 sequence 2: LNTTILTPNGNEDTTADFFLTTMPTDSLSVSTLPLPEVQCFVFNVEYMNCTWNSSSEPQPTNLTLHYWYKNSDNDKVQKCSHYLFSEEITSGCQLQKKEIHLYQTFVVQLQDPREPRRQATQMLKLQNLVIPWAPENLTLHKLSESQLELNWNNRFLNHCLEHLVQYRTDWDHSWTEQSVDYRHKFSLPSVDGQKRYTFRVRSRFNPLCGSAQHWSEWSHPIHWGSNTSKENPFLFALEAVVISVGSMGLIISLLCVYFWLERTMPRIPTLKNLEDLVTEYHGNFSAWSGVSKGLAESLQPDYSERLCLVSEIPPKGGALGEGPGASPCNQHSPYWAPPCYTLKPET

T2: high-affinity hIL-2 receptor (IL-2Rαβγ) on NK-92 cells (human, UniProt P01589 22-272; P14784 27-551; P31785 23-369)
T2 sequence 1: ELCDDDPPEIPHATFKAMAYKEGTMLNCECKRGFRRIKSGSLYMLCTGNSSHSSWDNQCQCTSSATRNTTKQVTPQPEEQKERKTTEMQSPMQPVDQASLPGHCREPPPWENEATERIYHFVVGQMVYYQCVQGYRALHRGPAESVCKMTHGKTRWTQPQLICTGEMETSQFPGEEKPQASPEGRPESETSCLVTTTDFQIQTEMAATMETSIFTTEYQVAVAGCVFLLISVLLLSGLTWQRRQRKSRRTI
T2 sequence 2: T1 sequence 1
T2 sequence 3: T1 sequence 2

B1: D12-hIgG4-df-hIL-2 (D20A/R38E) (other)
heavy: DVQLVESGGGLVQPGGSLRLSCAASGFTFDISAMSWVRQAPGKGLEWVSTISGSAYSTYYADSVKGRFTISRDNSKSTLYLQMNSLRAEDTAVYYCAREIFSDYWGLGTLVTVSSASTKGPSVFPLAPCSRSTSESTAALGCLVKDYFPEPVTVSWNSGALTSGVHTFPAVLQSSGLYSLSSVVTVPSSSLGTKTYTCNVDHKPSNTKVDKRV[not shown - about 350 residues with a human IgG4 Fc]
light: QSVLTQPPSASGTPGQRVTISCSGNTSNIGRESVYWYQQLPGTAPKLLIYSNVQRPSGVPDRFSGSKSGTSASLAISGLQSEDEADYYCGTWDDSLNGWVFGGGTKLTVLGQPKAAPSVTLFPPSSEELQANKATLVCLISDFYPGAVTVAWKADSSPVKAGVETTTPSKQSNNKYAASSYLSLTPEQWKSHRSYSCQVTHEGSTVEKTVAPTECS
B2: G12-hIgG4-df-hIL-2 (D20A/R38E) (other)
heavy: DSLVESGGGLVQPGGSLRLSCAASGFTFDISAMSWVRQAPGKGLEWVSTISGSAYSTYYADSVKGRFTISRDNSKSTLYLQMNSLRAEDTAVYYCAREIFSDYWGLGTLVTVSSASTKGPSVFPLAPCSRSTSESTAALGCLVKDYFPEPVTVSWNSGALTSGVHTFPAVLQSSGLYSLSSVVTVPSSSLGTKTYTCNVDHKPSNTKVDKRV[not shown - about 350 residues with a human IgG4 Fc]
light: B1 light with N25S, S51L, V53S, E84V
B3: OMC476pG10-hIgG4-df-hIL-2 (D20A/R38E) (other)
heavy: DVQLVESGGGVVRPGGSLRLSCAASGFTFSIYAMSWVRQAPGEGLEWVSHISASGGSTYYADSVKGRFAISRDNSKNTLYLQMNSLRAEDTAVYYCTTNLGSDYWGLGTLVTVSSASTKGPSVFPLAPCSRSTSESTAALGCLVKDYFPEPVTVSWNSGALTSGVHTFPAVLQSSGLYSLSSVVTVPSSSLGTKTYTCNVDHKPSNTKVDKRV[not shown - about 350 residues with a human IgG4 Fc]
light: QSVLTQPPSASGTPGQRVTISCSGSYSDIGTNYVYWYQQLPGTAPKLLIFATDRRPSGVPDRFSGSKSGTSASLAISGLQSEDEADYYCGTWDDSLNVWVFGGGTKLTVLGQPKAAPSVTLFPPSSEELQANKATLVCLISDFYPGAVTVAWKADSSPVKAGVETTTPSKQSNNKYAASSYLSLTPEQWKSHRSYSCQVTHEGSTVEKTVAPTECS
B4: A2-hIgG4-df-hIL-2 (D20S/R38E) (other)
heavy: DVQLVESGGGLVQPGGSLRLSCAASGFTFDISAMSWVRQAPGKGLEWVSTISGSAYSTYYADSVKGRFTISRDNSKSTLYLQMNSLRAEDTAVYYCAREIFSDYWGLGTLVTVSSASTKGPSVFPLAPCSRSTSESTAALGCLVKDYFPEPVTVSWNSGALTSGVHTFPAVLQSSGLYSLSSVVTVPSSSLGTKTYTCNVDHKPSNTKVDKRV[not shown - about 350 residues with a human IgG4 Fc and changes]
light: B1 light with N25S, V59A, D61N
B5: OMC.1.B6-hIgG4-L6-hIL-2 (D20A/R38E) (other)
heavy: EVQLLESGGGLVQPGGSLRLSCAASGFTFSSNYMSWVRQAPGKGLEWVSAISSSGGTIFYADSVKGRFTISRDNSKNTLYLQMNSLRAEDTAVYYCAKHKWNAVYYDGMDVWGQGTTVTVSSASTKGPSVFPLAPCSRSTSESTAALGCLVKDYFPEPVTVSWNSGALTSGVHTFPAVLQSSGLYSLSSVVTVPSSSLGTKTYTCNVDHKPSNTKVDKRV[not shown - about 350 residues with a human IgG4 Fc]
light: QSVLTQPPSASGTPGQRVTISCSGSNSNIGRNLVNWYQQLPGTAPKLLIYTIDQRPSGVPDRFSGSKSGTSASLVISGLQSEDEADYYCAAWDGSLNAWVFGGGTKLTVLGQPKAAPSVTLFPPSSEELQANKATLVCLISDFYPGAVTVAWKADSSPVKAGVETTTPSKQSNNKYAASSYLSLTPEQWKSHRSYSCQVTHEGSTVEKTVAPTECS
B6: OMC.1.D6-hIgG4-L6-hIL-2 (D20A/R38E) (other)
heavy: EVQLLESGGGLVQPGGSLRLSCAASGFTFSDYYMSWVRQAPGKGLEWVSAISSSGGTIFYADSVKGRFIISRDNSKNTLYLQMNSLRAEDTAVYYCAKHKWNDVYYDAMDVWGQGTTVTVSSASTKGPSVFPLAPCSRSTSESTAALGCLVKDYFPEPVTVSWNSGALTSGVHTFPAVLQSSGLYSLSSVVTVPSSSLGTKTYTCNVDHKPSNTKVDKRV[not shown - about 350 residues with a human IgG4 Fc]
light: B5 light with I52V, V75A, Q80A, G94S, A98S
B7: 1D5-hIgG4-df-hIL-2 (D20A/R38E) (other)
heavy: EVQLLESGGGLVQPGGSLRLSCVGSGFNFKDYCMTWVRQAPGKGLEWVSAIVYSGGSTYYADSVKGRFTISRDNSKNTLYLQMNSLRAEDTAVYYCAKYTRGSYFYDAMDVWGQGTTVTVSSASTKGPSVFPLAPCSRSTSESTAALGCLVKDYFPEPVTVSWNSGALTSGVHTFPAVLQSSGLYSLSSVVTVPSSSLGTKTYTCNVDHKPSNTKVDKRV[not shown - about 350 residues with a human IgG4 Fc]
light: EIVLTQSPGTLSLSPGERATLSCRASQSIGRSFLAWYQQKPGQAPRLLIYDASTRATDIPDRFSGSGSGTEFTLTISSLQSEDFAVYYCQQYYDWPPLTFGGGTKVEIKRTVAAPSVFIFPPSDEQLKSGTASVVCLLNNFYPREAKVQWKVDNALQSGNSQESVTEQDSKDSTYSLSSTLTLSKADYEKHKVYACEVTHQGLSSPVTKSFNRGEC
B8: A2-hIgG4-df-hIL-2 (D20A/R38E) (other)
heavy: DVQLVESGGGLVQPGGSLRLSCAASGFTFDISAMSWVRQAPGKGLEWVSTISGSAYSTYYADSVKGRFTISRDNSKSTLYLQMNSLRAEDTAVYYCAREIFSDYWGLGTLVTVSSASTKGPSVFPLAPCSRSTSESTAALGCLVKDYFPEPVTVSWNSGALTSGVHTFPAVLQSSGLYSLSSVVTVPSSSLGTKTYTCNVDHKPSNTKVDKRV[not shown - about 350 residues with a human IgG4 Fc and changes]
light: B1 light with N25S, V59A, D61N
B9: A2-hIgG4-df-hIL-2 (R38E/D84K) (other)
heavy: DVQLVESGGGLVQPGGSLRLSCAASGFTFDISAMSWVRQAPGKGLEWVSTISGSAYSTYYADSVKGRFTISRDNSKSTLYLQMNSLRAEDTAVYYCAREIFSDYWGLGTLVTVSSASTKGPSVFPLAPCSRSTSESTAALGCLVKDYFPEPVTVSWNSGALTSGVHTFPAVLQSSGLYSLSSVVTVPSSSLGTKTYTCNVDHKPSNTKVDKRV[not shown - about 350 residues with a human IgG4 Fc and changes]
light: B1 light with N25S, V59A, D61N
B10: 1D5-hIgG4-LAGA-df-hIL-2 (T3A/D20A/R38E/C125A) (other)
heavy: EVQLLESGGGLVQPGGSLRLSCVGSGFNFKDYCMTWVRQAPGKGLEWVSAIVYSGGSTYYADSVKGRFTISRDNSKNTLYLQMNSLRAEDTAVYYCAKYTRGSYFYDAMDVWGQGTTVTVSSASTKGPSVFPLAPCSRSTSESTAALGCLVKDYFPEPVTVSWNSGALTSGVHTFPAVLQSSGLYSLSSVVTVPSSSLGTKTYTCNVDHKPSNTKVDKRV[not shown - human IgG4 Fc with S228P L235A G237A (EU numbers)]APASSSTKKTQLQLEHLLLALQMILNGINNYKNPKLTEMLTFKFYMPKKATELKHLQCLEEELKPLEEVLNLAQSKNFHLRPRDLISNINVIVLELKGSETTFMCEYADETATIVEFLNRWITFAQSIISTLT
light: B7 light

The binders below were run against T1, intermediate-affinity hIL-2 receptor … (assay: cell-based or functional assay).

Binder	Fold decrease from rhIL-2 (TF1 + IL-2Rβ + hPD-1)
B1	~1 fold
B2	~1 fold
B3	~0 fold
B4	~0 fold
B5	~0 fold
B6	~0 fold
B7	~1 fold

The binders below were run against T2, high-affinity hIL-2 receptor (IL-2Rαβγ) … (assay: cell-based or functional assay).

Binder	Fold change from rhIL-2 (NK-92)	Agonistic Activity (NK-92)
B8	~811 fold	
B1	> 10000 fold	20%
B2	> 10000 fold	20%
B3	> 10000 fold	70%

Molecular target: T1, intermediate-affinity hIL-2 receptor …
Test: cell-based or functional assay
Remark: another data set of the same source

Binder	Fold change from rhIL-2 (TF1 + IL-2Rβ)	Agonistic Activity (TF1 + IL-2Rβ)
B8	> 10000 fold	
B1	> 10000 fold	40%
B2	> 10000 fold	50%
B4	~7040 fold	
B5	~8460 fold	70%
B6	> 10000 fold	70%
B7	~7420 fold	80%
B9		90%
B10		20%

— US20240076343A1 (CEPHALON, published 2024)
